Reference: publication PMC4336329 (PLoS ONE, 2015)
Screen size: about 310,000 compounds; about 2,200 (0.71%) showed an effect of 50% or more. Effects have a minus sign here. Some of the results follow.

Molecular target: human ether-à-go-go-related gene (hERG) potassium channel (human, UniProt Q12809)
Experiment: primary screen, population patch clamp on CHO cells stably expressing hERG

human ether-à-go-go-related gene (hERG) potassium channel, sequence (Q12809 whole entry, looked up): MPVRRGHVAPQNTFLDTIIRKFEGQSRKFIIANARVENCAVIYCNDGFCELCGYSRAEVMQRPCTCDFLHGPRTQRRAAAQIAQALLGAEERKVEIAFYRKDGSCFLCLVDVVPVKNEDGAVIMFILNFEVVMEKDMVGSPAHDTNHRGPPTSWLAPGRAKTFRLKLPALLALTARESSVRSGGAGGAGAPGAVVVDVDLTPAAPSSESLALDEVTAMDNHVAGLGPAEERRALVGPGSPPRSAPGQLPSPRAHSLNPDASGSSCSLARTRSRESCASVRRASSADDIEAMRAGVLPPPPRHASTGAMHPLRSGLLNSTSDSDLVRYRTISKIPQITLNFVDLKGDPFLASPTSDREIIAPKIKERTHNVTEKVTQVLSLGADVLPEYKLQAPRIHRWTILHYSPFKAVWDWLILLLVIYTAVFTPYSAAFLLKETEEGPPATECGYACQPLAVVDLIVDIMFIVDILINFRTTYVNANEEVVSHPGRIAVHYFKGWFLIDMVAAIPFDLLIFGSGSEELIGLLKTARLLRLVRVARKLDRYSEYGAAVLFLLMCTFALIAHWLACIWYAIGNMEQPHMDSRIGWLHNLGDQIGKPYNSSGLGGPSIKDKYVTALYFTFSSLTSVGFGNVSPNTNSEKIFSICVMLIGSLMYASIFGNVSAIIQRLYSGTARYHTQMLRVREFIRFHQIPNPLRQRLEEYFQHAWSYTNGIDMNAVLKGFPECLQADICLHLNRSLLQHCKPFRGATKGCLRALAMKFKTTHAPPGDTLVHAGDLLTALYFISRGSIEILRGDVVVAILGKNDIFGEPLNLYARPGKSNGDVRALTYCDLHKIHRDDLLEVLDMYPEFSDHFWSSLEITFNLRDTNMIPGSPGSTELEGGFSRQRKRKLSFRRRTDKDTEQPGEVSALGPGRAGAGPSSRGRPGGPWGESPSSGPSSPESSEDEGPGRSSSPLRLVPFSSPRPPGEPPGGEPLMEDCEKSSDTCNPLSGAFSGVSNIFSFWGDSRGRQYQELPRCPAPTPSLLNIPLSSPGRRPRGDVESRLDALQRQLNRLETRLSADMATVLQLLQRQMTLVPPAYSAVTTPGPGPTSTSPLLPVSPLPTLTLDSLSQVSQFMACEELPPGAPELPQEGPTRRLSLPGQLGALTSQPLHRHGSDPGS

Row | SMILES | hERG current change (%, negative = inhibition) at 1uM [%]
1 | C=CCNc1nc(S(=O)Cc2ccc(C)cc2)nc2c1CCCC2 (centres unmarked) | 15.8
2 | COCCNC(=O)CCCn1c(=O)c2cc(OC)c(OC)cc2n(CC(=O)c2cccc(OC)c2)c1=O | 9.69
3 | CC1Sc2ccc(S(=O)(=O)CCC(=O)N3CCN(c4ccccc4)CC3)cc2NC1=O (centres unmarked) | 15.5
4 | CCOC(=O)c1c(C)c(C(=O)N2CCCCCC2)c(C)n1CC | 12.7
5 | CC1(C)CC(=O)C(C=NCCc2ccccn2)=C(O)C1 | 7
6 | CCCCCn1c(=O)[nH]c2cc(C(=O)NCCN(CC)CC)ccc2c1=O | 8.67
7 | Cc1csc(NC(=O)C(Cc2ccccc2)n2cccc2)n1 (centres unmarked) | 12.9
8 | Cc1c(C(=O)NCC2CCCO2)oc2ccc(Br)cc12 (centres unmarked) | 11.3
9 | O=C(CSc1cccc[n+]1[O-])CSc1cccc[n+]1[O-] | 12.5
10 | Cc1cccc2c3nc4ccccc4nc3n(C)c12 | 7.81
11 | CCOc1ccc(-c2nnc(NC(=O)C3CCCC3)o2)cc1 | 13.9
12 | COc1cc(NC(=O)Nc2cccc(C(C)=O)c2)cc(OC)c1OC | 5.91
13 | O=C(O)CSc1nnnn1-c1ccc2c(c1)OCCO2 | -2.99
14 | O=C(Cc1ccc(S(=O)(=O)N2CCOCC2)s1)NCCc1ccc(F)cc1 | 5.48
15 | C=C(C)Cn1c(C)cc(C)c(S(=O)(=O)c2cccc(C)c2)c1=O | -7.18
16 | O=C(COc1ccc(Cl)cc1)NC1=NN(c2ccccc2)C(=O)C1 | 9.82
17 | CC(C)C(=O)Nc1cccc(NC(=O)CCN2C(=O)c3ccccc3S2(=O)=O)c1 | 10.1
18 | CC(=O)c1ccc(S(=O)(=O)N(C)CC(=O)Nc2ccc(C)cc2)cc1 | 6.83
19 | O=C(NCc1ccco1)C(c1ccc(F)cc1)N(CC1CCCO1)C(=O)Cn1nnc2ccccc21 (centres unmarked) | 9.18
20 | N[C@@H](Cc1c[nH]c2ccc(O)cc12)C(=O)O | 15.6

Row | SMILES | hERG current change (%, negative = inhibition) at 1uM [%]
21 | CC(C)N1C(=O)C(=O)N(CC(=O)N(C)c2ccccc2)C1=O | 10.8
22 | Cc1ccccc1C(=O)N1CCC(C(=O)Nc2nc3ccc(F)cc3s2)CC1 | 1.13
23 | Nc1cc(Cl)ccc1C(=O)OCC(=O)NC1CCCCC1 | -4.47
24 | CCOC(=O)c1[nH]c2ccccc2c1CCCN1C(=O)c2ccccc2C1=O | 10.2
25 | O=C(Cn1cnc([N+](=O)[O-])n1)N/N=C/c1cccc(Cl)c1 | 1.97
26 | CCOC(=O)c1c(C)n(C)c2ccc(OCC(O)CN3CCC(C)CC3)cc12.Cl (centres unmarked) | -1.19
27 | CC(C)C(=O)Nc1cccnc1 | 17.7
28 | Cc1c(C(=O)NN)sc(-c2ccccc2)c1C#N | 10.4
29 | Cc1nnc(NC(=O)CSc2nnc(Cc3cccn3C)n2C)s1 | 10.4
30 | O=C(Cc1c(C(=O)O)[nH]c2ccccc12)NCCN1CCN(c2cccc(Cl)c2)CC1 | 13.4
31 | O=C(c1ccncc1)N1CCN(c2cccc(C(F)(F)F)c2)CC1 | -7.14
32 | Cc1ccccc1C(=O)NC1CCN(Cc2nnnn2Cc2ccccc2)CC1 | -0.247
33 | Cc1ccc(Nc2nc(C)cc(C)c2C(N)=O)c(C)c1 | 13.8
34 | O=c1cc(CN2CC(O)Cc3ccc4ccccc4c32)nc2sccn12 (centres unmarked) | 0.461
35 | Cc1ccc(/C=N/N(C)C2=NS(=O)(=O)c3ccccc32)o1 | 16.5
36 | COc1ccccc1CNC(=O)C(C)NS(=O)(=O)c1ccc(C)cc1 (centres unmarked) | 9.28
37 | CCOC(=O)/C=C(\C)Sc1cc(=O)oc2ccccc12 | 10.2
38 | O=C(NCCN1CCOC1=O)C1CCC(=O)N(CCc2ccc(Cl)cc2)C1 (centres unmarked) | 0.606
39 | CCCNC(=O)c1ccc2c(c1)CCN2S(C)(=O)=O | 4.7
40 | COc1ccc(C2CC(=O)C=C(NCCC(C)C)C2)cc1 (centres unmarked) | -11.8

Row | SMILES | hERG current change (%, negative = inhibition) at 1uM [%]
41 | CN(Cc1ccccc1)C1CCN(Cc2ccccc2[N+](=O)[O-])CC1.O=C(O)C(=O)O | -1.08
42 | Cc1c(C(=O)NC2CC2)oc2ccccc12 | 3.03
43 | CCOc1c(OC(C)=O)ccc(/C=C/c2ccc3cccc(OC)c3n2)c1[N+](=O)[O-] | 6.52
44 | COC(=O)C1C(=O)C2=C(CC1C)NC(=O)CC2c1ccc(O)c(OC)c1 (centres unmarked) | 12.3
45 | Cc1ccc(O)c(/C=N/NC(=O)Cc2ccc(Cl)cc2)c1 | 11.8
46 | CCc1cc2c(=O)[nH]c(-c3ccncc3)nc2s1 | 12.2
47 | COc1ccc2nc(Nc3nc(-c4cc5ccccc5oc4=O)cs3)sc2c1 | 8.08
48 | CN(C)c1ccc(-c2n[nH]c(=S)n2-c2ccccc2)cc1 | 14.8
49 | CC(C)(C)N(Cc1ccccc1)C(=O)CSc1nnc(CNc2ccc(F)cc2)o1 | 2.58
50 | O=C(CNC(=O)c1ccc(Br)o1)NC1CCCCCC1 | 2.06
51 | CCn1c(=O)n(CC(=O)N2CCN(c3ccccc3F)CC2)c(=O)c2ccccc21 | 1.36
52 | Cc1cc(O)c(/C=N/OCc2ccc(Cl)cc2Cl)c(=O)o1 | 14.7
53 | CCOC(=O)c1sc(C)c(C(=O)NC2CCCCC2)c1N | 10.7
54 | Brc1ccc(-c2csc(N3CCc4ccccc4C3)n2)cc1 | 12.7
55 | CSc1ccccc1-c1nnc(-c2ccccc2)o1 | 11.6
56 | COc1ccccc1CCNC(=O)Nc1cccc([N+](=O)[O-])c1 | 9.1
57 | CNc1cc(N2CCNCC2)ccc1[N+](=O)[O-] | 14.8
58 | CCOC(=O)N1CCN(S(=O)(=O)c2ccc(C)c(C)c2C)CC1 | 9.56
59 | COc1ccc(NC(=O)NC23CC4CC(CC(C4)C2)C3)cc1OC | 15.9
